From a collection of fitness landscapes (doi:10.1126/science.1257360) come the findings set out here.

This is one part of the list. A value given as a limit tells only on which side of the number the result lay.

The labels stand for the following.
B1: PhoQ; a variant is named by its letters at X, in order, P23837 (parent)
chain: MKKLLRLFFPLSLRVRFLLATAAVVLVLSLAYGMVALIGYSVSFDKTTFRLLRGESNLFYTLAKWENNKLHVELPENIDKQSPTMTLIYDENGQLLWAQRDVPWLMKMIQPDWLKSNGFHEIEADVNDTSLLLSGDHSIQQQLQEVREDDDDAEMTHSVAVNVYPATSRMPKLTIVVVDTIPVELKSSYMVWSWFIYVLSANLLLVIPLLWVAAWWSLRPIEALAKEVRELEEHNRELLNPATTRELTSLVRNLNRLLKSERERYDKYRTTLTDLTHSLKTPLXXLQXXLRSLRSEKMSVSDAEPVMLEQISRISQQIGYYLHRASMRGGTLLSRELHPVAPLLDNLTSALNKVYQRKGVNISLDISPEISFVGEQNDFVEVMGNVLDNACKYCLEFVEISARQTDEHLYIVVEDDGPGIPLSKREVIFDRGQRVDTLRPGQGVGLAVAREITEQYEGKIVAGESMLGGARMEVIFGRQHSAPKDE

In the test the parent is B1. Nature of the test: enrichment ratio after two sorts for PhoP signalling (ratio (wild type AVST 3.29)); higher = more functional. The settings on record: with PhoP (E. coli).
As to PRSS, the enrichment ratio was at most 0.25.

Regarding YMFR, the enrichment ratio was at most 0.25. On to VMFC, for which the enrichment ratio was at most 0.25. For PLFL, the enrichment ratio is at most 0.25. In the case of EVGD, the enrichment ratio was at most 0.25. Then RKYG, with at most 0.25; and MFYV, with at most 0.25; and YGGP, with at most 0.25.

Consider HLFL, for which the enrichment ratio is at most 0.25. For QHWI, the enrichment ratio was at most 0.25. In the case of MSPR, the enrichment ratio was at most 0.25.

Turning to KMSK, the enrichment ratio is at most 0.25. For SPEA the value was at most 0.25.

ECSQ: the enrichment ratio is at most 0.25.

Turning to TYNG, the enrichment ratio was at most 0.25. In the case of YGMG, the enrichment ratio came to 0.474. For IWNE the value was at most 0.25. For RHNV the value was at most 0.25; for VLFW, at most 0.25; for LSFG, at most 0.25. Then KVAE, with at most 0.25; and LFTK, with at most 0.25; and QYEP, with at most 0.25. As for NTFE, the enrichment ratio was at most 0.25. EKEE: the enrichment ratio was at most 0.25. For YEMC the value was at most 0.25; for LWVY, at most 0.25. As for EALD, the enrichment ratio was at most 0.25.

For the variant QGGT, the enrichment ratio turned out to be 8.36. For NKFD the value was at most 0.25; for STYK, at most 0.25.

Regarding HNKK, the enrichment ratio was at most 0.25. For IVQL, the enrichment ratio was at most 0.25. Consider GDPR, for which the enrichment ratio was at most 0.25. Then TQDM, with at most 0.25. For the variant NHFG, the enrichment ratio was at most 0.25. Then ELPG, with at most 0.25; and SHFK, with at most 0.25; and HREK, with at most 0.25. For MKSP the value was at most 0.25. For WYVT the value was at most 0.25. With MLLA, the enrichment ratio was at most 0.25. For the variant GPGE, the enrichment ratio was at most 0.25.

On to MLLG, for which the enrichment ratio is at most 0.25. On to ERYP, for which the enrichment ratio was at most 0.25. Then HPFL, with at most 0.25; and FIMV, with 1.48; and FTHC, with at most 0.25.

Take ADSE: the enrichment ratio was at most 0.25. VKYL: the enrichment ratio was at most 0.25. As to LQFV, the enrichment ratio is at most 0.25. For GKTL the value was at most 0.25.

For the variant EDSE, the enrichment ratio is at most 0.25. Then WYFK, with at most 0.25; and FSKG, with at most 0.25; and WDWG, with at most 0.25. For NQIA the value was at most 0.25. Take YITF: the enrichment ratio was at most 0.25. For the variant RRTM, the enrichment ratio was at most 0.25. For EFTE, the enrichment ratio was at most 0.25. Then GEHD, with at most 0.25. Then IDWW, with at most 0.25.

Turning to PYSW, the enrichment ratio is at most 0.25. Regarding RVPQ, the enrichment ratio is at most 0.25.

For the variant KPAL, the enrichment ratio is at most 0.25. Then WSLI, with 6.6; and FISL, with at most 0.25.

Take EHPK: the enrichment ratio is at most 0.25. For IART the value was at most 0.25. As for SHIR, the enrichment ratio is at most 0.25. In the case of DICM, the enrichment ratio is at most 0.25. On to TFSD, for which the enrichment ratio is at most 0.25.

As to PEFI, the enrichment ratio is at most 0.25. For FRVM the value was at most 0.25; for KARA, at most 0.25. Then AYQH, with at most 0.25; and FTGV, with at most 0.25.

For QYCA, the enrichment ratio is at most 0.25.

With YSYY, the enrichment ratio is at most 0.25. For the variant QAWI, the enrichment ratio is at most 0.25. Then PCLQ, with at most 0.25; and IQIH, with at most 0.25; and EDRS, with at most 0.25. Regarding TIFL, the enrichment ratio was at most 0.25.

Consider SYPA, for which the enrichment ratio is at most 0.25. For PHKH the value was at most 0.25. For KLCQ the value was at most 0.25; for IDLI, at most 0.25. Turning to TFFR, the enrichment ratio is at most 0.25. For VDGF the value was at most 0.25. With VVRI, the enrichment ratio is at most 0.25. For VNLR the value was at most 0.25; for PEYC, at most 0.25; for YNKC, at most 0.25. Take NVLA: the enrichment ratio was at most 0.25. In the case of PTPL, the enrichment ratio is at most 0.25.

With HRPV, the enrichment ratio is at most 0.25. EQWL: the enrichment ratio is at most 0.25.

On to VNGY, for which the enrichment ratio is at most 0.25.

Regarding GPHC, the enrichment ratio is at most 0.25. Then TIRL, with 1.25; and NHIR, with at most 0.25; and WPYF, with at most 0.25.

In the case of IYPN, the enrichment ratio is at most 0.25. With PDYR, the enrichment ratio was at most 0.25. Then CNSI, with 7.37; and DVHC, with at most 0.25; and GGFI, with at most 0.25. Then ITKY, with at most 0.25; and LIHE, with at most 0.25. For EYMQ the value was at most 0.25. On to LYFD, for which the enrichment ratio is at most 0.25.

On to QQFS, for which the enrichment ratio amounted to 2.01. MFLN: the enrichment ratio is at most 0.25. As for QQFK, the enrichment ratio is at most 0.25. Take SSNP: the enrichment ratio is at most 0.25. Then FNAC, with at most 0.25; and VKID, with at most 0.25; and RTRF, with at most 0.25. Take HQDN: the enrichment ratio is at most 0.25. On to DFQS, for which the enrichment ratio is at most 0.25.

For HMKG, the enrichment ratio is at most 0.25.

For ENFH, the enrichment ratio is at most 0.25.

With HGQK, the enrichment ratio is at most 0.25.

With MHHM, the enrichment ratio was at most 0.25. For HIHK the value was at most 0.25; for FMGQ, at most 0.25.

LMRI: the enrichment ratio was at most 0.25. Then RMQF, with at most 0.25; and TKTW, with at most 0.25. Then LVRT, with at most 0.25; and DATD, with at most 0.25; and MVWR, with at most 0.25.

Consider DMWG, for which the enrichment ratio is at most 0.25. For KAQT the value was at most 0.25; for FKCT, at most 0.25.

Regarding HTAK, the enrichment ratio is at most 0.25. For YFQM, the enrichment ratio was at most 0.25. Then PGRL, with at most 0.25; and RADL, with at most 0.25; and GSGK, with at most 0.25.

On to DCDD, for which the enrichment ratio was at most 0.25.

HTTM: the enrichment ratio was at most 0.25. Take RCAV: the enrichment ratio was at most 0.25. Take RQHR: the enrichment ratio is at most 0.25. Then DFDF, with at most 0.25; and GCTR, with at most 0.25. For KEGS the value was at most 0.25; for LMRC, at most 0.25. With IELD, the enrichment ratio was at most 0.25.

With MYVS, the enrichment ratio is at most 0.25.

Regarding NQAP, the enrichment ratio was at most 0.25. Then EKAD, with at most 0.25.
